In publication PMC3616983:
These are yes or no findings as the source states them, for the method shown. Some results given as binding are weak or reduced against the parent protein; the word gives no strength.

Sequences of proteins named here, by UniProt entry; tags and fusion partners are left off.
UniProt Q7L804: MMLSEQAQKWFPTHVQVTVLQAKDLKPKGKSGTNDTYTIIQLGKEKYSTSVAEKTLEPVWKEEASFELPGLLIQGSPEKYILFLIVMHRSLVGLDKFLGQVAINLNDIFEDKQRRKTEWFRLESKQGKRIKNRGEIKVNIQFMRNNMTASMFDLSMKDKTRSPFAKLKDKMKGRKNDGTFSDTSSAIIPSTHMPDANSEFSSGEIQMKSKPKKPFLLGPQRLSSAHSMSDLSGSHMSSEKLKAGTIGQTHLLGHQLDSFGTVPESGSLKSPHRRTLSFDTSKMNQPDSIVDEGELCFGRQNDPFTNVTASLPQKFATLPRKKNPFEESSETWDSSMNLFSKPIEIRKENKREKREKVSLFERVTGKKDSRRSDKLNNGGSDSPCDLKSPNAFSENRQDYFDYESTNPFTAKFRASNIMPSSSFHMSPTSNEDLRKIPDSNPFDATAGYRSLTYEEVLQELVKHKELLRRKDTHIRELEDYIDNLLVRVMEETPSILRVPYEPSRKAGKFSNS
UniProt P61006: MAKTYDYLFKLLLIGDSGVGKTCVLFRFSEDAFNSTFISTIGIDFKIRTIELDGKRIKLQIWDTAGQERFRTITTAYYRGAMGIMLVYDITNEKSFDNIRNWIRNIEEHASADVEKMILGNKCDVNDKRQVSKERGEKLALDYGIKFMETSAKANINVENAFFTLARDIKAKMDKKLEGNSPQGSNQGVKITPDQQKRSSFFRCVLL
UniProt P62491: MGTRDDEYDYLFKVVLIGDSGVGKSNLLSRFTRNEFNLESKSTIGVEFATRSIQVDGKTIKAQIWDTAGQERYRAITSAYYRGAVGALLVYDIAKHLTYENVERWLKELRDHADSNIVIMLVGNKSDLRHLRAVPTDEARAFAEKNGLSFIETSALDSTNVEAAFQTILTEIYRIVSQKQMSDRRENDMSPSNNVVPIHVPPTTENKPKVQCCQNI

How the values were obtained:
Test in all cases: two-hybrid; split-ubiquitin yeast two-hybrid; Rab11-FIP proteins in CCW vectors, Rab proteins in DSL vectors; consistent over three separate experiments
Rab11-FIP1B = molecular target: T1, Rab11-FIP1B (UniProt Q6WKZ4)
T1 sequence: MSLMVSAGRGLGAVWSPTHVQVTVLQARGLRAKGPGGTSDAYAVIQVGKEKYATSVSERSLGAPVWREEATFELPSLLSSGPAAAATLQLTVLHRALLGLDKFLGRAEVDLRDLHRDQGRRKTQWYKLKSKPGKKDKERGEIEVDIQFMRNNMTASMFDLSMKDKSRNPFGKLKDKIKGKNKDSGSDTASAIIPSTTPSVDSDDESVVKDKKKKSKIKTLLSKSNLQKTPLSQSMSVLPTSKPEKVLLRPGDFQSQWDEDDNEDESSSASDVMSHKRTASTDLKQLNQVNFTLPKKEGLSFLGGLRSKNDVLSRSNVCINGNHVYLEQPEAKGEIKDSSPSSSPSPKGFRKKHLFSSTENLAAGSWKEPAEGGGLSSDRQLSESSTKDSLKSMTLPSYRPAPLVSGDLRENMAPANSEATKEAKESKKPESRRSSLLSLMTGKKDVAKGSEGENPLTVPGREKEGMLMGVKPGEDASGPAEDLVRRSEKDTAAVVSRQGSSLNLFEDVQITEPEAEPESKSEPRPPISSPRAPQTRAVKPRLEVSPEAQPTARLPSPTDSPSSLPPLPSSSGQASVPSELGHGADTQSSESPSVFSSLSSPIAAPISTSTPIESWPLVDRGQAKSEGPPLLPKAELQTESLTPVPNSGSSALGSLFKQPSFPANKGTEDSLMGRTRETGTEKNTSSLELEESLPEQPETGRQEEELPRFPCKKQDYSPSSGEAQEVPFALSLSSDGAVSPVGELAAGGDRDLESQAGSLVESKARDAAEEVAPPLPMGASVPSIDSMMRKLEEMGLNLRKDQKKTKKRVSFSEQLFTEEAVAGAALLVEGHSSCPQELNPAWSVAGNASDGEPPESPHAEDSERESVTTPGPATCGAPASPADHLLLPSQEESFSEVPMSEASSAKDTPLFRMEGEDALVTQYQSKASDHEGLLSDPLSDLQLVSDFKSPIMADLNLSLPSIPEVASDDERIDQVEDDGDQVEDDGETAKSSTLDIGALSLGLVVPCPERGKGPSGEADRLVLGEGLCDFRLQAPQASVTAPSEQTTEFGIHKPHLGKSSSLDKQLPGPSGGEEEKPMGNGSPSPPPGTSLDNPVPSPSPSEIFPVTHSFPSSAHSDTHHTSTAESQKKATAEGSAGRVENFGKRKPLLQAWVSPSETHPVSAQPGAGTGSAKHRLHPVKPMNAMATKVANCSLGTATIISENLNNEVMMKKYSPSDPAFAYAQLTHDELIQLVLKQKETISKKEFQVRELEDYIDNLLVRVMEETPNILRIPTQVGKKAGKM

Rab11-FIP1C/RCP = molecular target: T2, Rab11-FIP1C/RCP (UniProt Q6WKZ4)
T2 sequence: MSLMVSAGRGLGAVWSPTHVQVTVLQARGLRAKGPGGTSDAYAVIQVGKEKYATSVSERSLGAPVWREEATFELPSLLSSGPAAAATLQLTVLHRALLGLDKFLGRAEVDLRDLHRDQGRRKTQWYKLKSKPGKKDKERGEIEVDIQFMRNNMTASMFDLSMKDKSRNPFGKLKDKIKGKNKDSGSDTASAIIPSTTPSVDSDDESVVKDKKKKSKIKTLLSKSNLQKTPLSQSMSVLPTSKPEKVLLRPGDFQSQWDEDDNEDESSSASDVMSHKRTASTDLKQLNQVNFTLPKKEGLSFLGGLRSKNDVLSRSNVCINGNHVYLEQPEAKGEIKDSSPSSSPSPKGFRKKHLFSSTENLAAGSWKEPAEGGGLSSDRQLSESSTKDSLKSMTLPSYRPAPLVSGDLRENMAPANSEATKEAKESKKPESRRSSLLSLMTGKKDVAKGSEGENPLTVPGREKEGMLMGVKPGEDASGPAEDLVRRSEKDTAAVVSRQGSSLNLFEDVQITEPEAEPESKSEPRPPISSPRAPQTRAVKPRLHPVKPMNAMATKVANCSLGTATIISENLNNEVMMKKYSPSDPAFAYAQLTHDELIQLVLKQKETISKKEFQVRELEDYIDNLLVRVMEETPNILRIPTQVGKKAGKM

Rab11-FIP2 = Rab11-FIP2 (UniProt Q7L804)

binding (Rab11-FIP1B) | binding (Rab11-FIP1C/RCP) | binding (Rab11-FIP2) | Substance
no binding | no binding | no binding | Rab8a (from UniProt P61006 1-207)
binds | binds | binds | Rab11a (from UniProt P62491 1-216)
